Test results published in the supplement of paper PMC10185492.
The list shows a part of the results. These are enrichments in a pooled selection; single values are uncertain.

Test system: SARS-CoV-2 3CLpro (nsp5)
Test: substrate phage enrichment score (protease-eluted vs HEPES control, +1 offset) (ratio); higher = better cleaved substrate
Conditions: selection round: 4; protease elution time: 15 min
Protocol: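 Random heptapeptide substrate phage display (M13 pIII fusion, heptapeptide between an N-terminal biotinylated AviTag GLNDIFEAQKIEWHE and pIII; phages immobilised on streptavidin) eluted by cleavage with 50 nM protease in 20 mM HEPES at 37 °C. Selected phages were NGS sequenced, and the enrichment score is (reads in protease sample + 1)/(reads in HEPES blank-selection control + 1).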

Substance	substrate phage enrichment score
PAKCGCA	3.67
EAAHHHH	0.712
SARQWAQ	1.91
QHCHTVK	> 45
TGVVGTT	2.69
GTLNTAP	6.67
LHEKCRW	> 25
QRTSVLH	> 22
VKTHGSV	2.53
ASTGPKM	1.8
LPRANYG	1.36
TARETGM	4.23
ELNSRAG	19.5
RECFGDM	13.6
LMTAPSG	> 21
NRCVTWQ	11.3
AACEFMA	4.62
SSLKPNA	> 24
FSSIGME	> 25
DNAAAHH	1.01
EEDGASR	6.33
AYYRRPD	2.83
GAAFNTK	> 28
LMALPKA	3.67
PQAAHHH	0.5

Substance	substrate phage enrichment score
MSEAGNR	0.25
CGHLLKD	47.5
CRCCQLG	> 55
SPHTNSS	6.67
RSATTNQ	2.05
SLNSPKP	1.75
ASDVKNP	0.0909
NCNVNPN	> 25
LKDSPPQ	15.5
IQHECQQ	> 61
QDVRQTH	0.8
KRSCILQ	> 22
RSATSPD	> 41
AVCDYAR	0.625
SSGEAVL	1.45
AKLQCCT	30
GHQAVLQ	> 27
CRSRPEF	1.26
TNSAAHH	0.294
SHMPTQS	0.00684
AKNSLGP	2.62
QGPQGTS	1
NCRVILQ	> 25
AYCDDLR	11
RQGCRST	7.33

Substance	substrate phage enrichment score
CAHSYLQ	> 75
FNVEKLT	> 53
GSILPKG	15
HARCQWQ	> 57
NKVRLHA	25.5
MSLERCF	> 32
RETPGGA	6.75
RSSTLLQ	> 49
GPSLKYR	5.11
HQNTRIP	1.3
SAAAQKH	1.04
TFPRQVP	1.68
CRIMNLQ	> 38
FCHHPTT	> 27
QIQRQES	5.33
TSEALTR	> 43
SYECFRT	0.312
DRQRAMK	1.07
EPAQLCS	> 40
GSSVILQ	> 69
SERSTVQ	4.44
LCPSAAA	0.917
QRTNVLQ	4.6
SAEDCME	11.2
RDRANHA	1.52

Substance	substrate phage enrichment score
VHRPLLR	3.6
EHVTEMQ	> 24
AWEQKTT	> 29
PSTRDLK	> 24
STSGSTT	> 32
PSWPVDC	5.25
HSCNVIE	> 21
RVLQGSV	> 26
ATQKTRG	> 46
NRNQLSS	2.9
TNGTYSK	> 41
RILSYDR	3.82
MEATLQS	> 120
YAPRCHW	0.25
RFRQEER	2.88
SPVPYMQ	11
HRGLGHS	5
RAAAHHQ	0.897
ALNPLLM	> 46
RNVSNLQ	33
YVDSALR	1.15
SFRCDVS	> 45
MTSRDPG	> 21
YSDGRGN	> 21
HRKDVDS	10.5
